Measured values: PubChem BioAssay AID485294 (National Center for Advancing Translational Sciences (NCATS), 2010)
Screen size: about 370,000 compounds; about 150 (0.041%) were called active. This list was built around the results that the source calls inconclusive (neither active nor inactive); the mix of calls is not that of the screen. Calls come from the whole dose curve; as a rule, active = well fitted inhibition curve with a large enough effect; inconclusive = small, poorly fitted or top-dose-only effect; inactive = flat fitted curve, though single readings scatter. No potency is given beside an inconclusive call; the fits are too rough.

These molecules were tested against Beta-lactamase (Escherichia coli (strain K12)) (UniProt P00811) (assay: qHTS Inhibitors of AmpC Beta-Lactamase (assay with detergent)). Settings: AmpC hydrolysis of nitrocefin, absorbance 480 nm, 0.01% Triton; series mostly up to 114 µM.
Method in brief: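 20 mM phosphate pH 7.0 + 0.01% (detergent screen) or 0.0001% Triton X-100; 5.3 nM AmpC reagent; cpd preinc 15 min RT; nitrocefin (800 uM stock) to start; A480 q20 s × 4 min; Activity was normalised to no-enzyme and no-compound control wells.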
Note: nearly all actives have a fitted effect of over 25% in size.
Potency is the fitted concentration of half-maximal effect; tags give direction and shape of the fitted curve.

Chain of UniProt P00811 (P00811 whole entry, looked up): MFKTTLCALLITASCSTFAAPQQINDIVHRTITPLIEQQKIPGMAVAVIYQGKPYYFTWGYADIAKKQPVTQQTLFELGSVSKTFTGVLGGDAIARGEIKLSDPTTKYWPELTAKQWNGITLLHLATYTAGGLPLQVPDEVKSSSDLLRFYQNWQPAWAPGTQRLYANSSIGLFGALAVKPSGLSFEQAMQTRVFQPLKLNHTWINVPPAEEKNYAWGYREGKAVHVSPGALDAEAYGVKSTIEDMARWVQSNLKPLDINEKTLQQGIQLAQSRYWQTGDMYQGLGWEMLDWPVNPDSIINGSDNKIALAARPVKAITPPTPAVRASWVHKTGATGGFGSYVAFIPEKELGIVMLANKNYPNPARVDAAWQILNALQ

With CC(C)N(CC#CC(O)(c1ccccc1)c1ccccc1)C(C)C as the molecule, how does the Potency read?
The Potency was “inactive”.

O=c1c([N+](=O)[O-])cccn1Cc1cccc(Br)c1 was tested. Which Potency did it give?
Its Potency is “inactive”.

How did the Potency turn out when CC(=C/c1ccccc1)/C=N/NC(=O)c1cccs1 was run?
Its Potency is “inactive”.

For CNc1nc(Nc2ccc([N+](=O)[O-])cc2)nc(OCC(F)(F)F)n1, which Potency is on record?
The Potency was inconclusive [inhibitor, full curve, poor fit].

COc1cc(OC)cc(C(=O)NNC(=O)NC2CCCCC2)c1 was tested. Which Potency did it give?
The Potency was inconclusive [inhibitor, single point].

How did the Potency turn out when CCOc1ccccc1C(=O)Nc1cc2c(cc1N1CCOCC1)n(C)c(=O)n2C was run?
The Potency was “inactive”.

For CCOc1ccc(N(CC(=O)N2CC=C(c3ccccc3)CC2)S(=O)(=O)c2c(C)noc2C)cc1, which Potency is on record?
Its Potency is inconclusive [inhibitor, partial curve, poor fit].

With Cn1c(Sc2ccc(Br)cc2)c(C=O)c2ccccc21 as the molecule, how does the Potency read?
The Potency was inconclusive [inhibitor, partial curve].

For CC(C)(C)NC(=O)CN(C(=O)C1CSC(=O)C1)c1ccccc1F (configuration not stated), which Potency is on record?
Its Potency is “inactive”.

With CCc1c(C(=O)N2CCOCC2)csc1C as the molecule, how does the Potency read?
Its Potency is inconclusive [inhibitor, single point].

With O=C(NCC1CCCO1)c1ccc(COc2ccccc2)o1 (configuration not stated) as the molecule, how does the Potency read?
The Potency was inconclusive [inhibitor, full curve, poor fit].

How did the Potency turn out when CCCn1c(Cc2ccccc2)n[nH]c1=S was run?
The Potency was inconclusive [inhibitor, full curve, poor fit].

How did the Potency turn out when Cc1ccc(NC(=O)Cn2nnc(-c3nc(-c4ccc(Cl)cc4)no3)c2N)cc1C was run?
Its Potency is “inactive”.

Which Potency does the source give for CN(CCOc1ccccc1Cl)Cc1ccccc1 here?
The Potency was “inactive”.

For CCc1cc(C(c2ccncc2)N2CCN(C)CC2)c(NC(=O)c2ccccc2)s1 (configuration not stated), which Potency is on record?
Its Potency is inconclusive [inhibitor, full curve].

With COc1ccc(/C=C(/C#N)C(=O)Nc2cccc([N+](=O)[O-])c2)cc1C(=O)O as the molecule, how does the Potency read?
Its Potency is inconclusive [inhibitor, partial curve, poor fit].

With CC(=O)N1CCN(CC(=O)Nc2c(Cl)cccc2Cl)CC1 as the molecule, how does the Potency read?
Its Potency is “inactive”.

For CCOc1ccc(C(=O)Nc2ccc(-c3nc4ccccc4s3)c(C)c2)cc1OCC, which Potency is on record?
The Potency was “inactive”.

CC(C)(C)C1CCC(C(=O)OCC(=O)c2ccc[nH]2)CC1 (configuration not stated) was tested. Which Potency did it give?
Its Potency is inconclusive [inhibitor, full curve, poor fit].

How did the Potency turn out when O=C(CCCc1c[nH]c2ccccc12)Nc1ncccc1O was run?
Its Potency is inconclusive [inhibitor, full curve, poor fit].

For Cc1cccc(N2CCN(C(=O)c3ccc4c(c3)NC(=O)C(CSCc3cccc(F)c3)N4)CC2C)c1 (configuration not stated), which Potency is on record?
Its Potency is “inactive”.

For COc1ccc(-c2[nH]c(-c3cccc(OC)c3)nc2SCC(=O)NCc2ccco2)cc1, which Potency is on record?
Its Potency is “inactive”.

With NC(=O)CCN(C(=O)c1cccc(S(=O)(=O)N2CCc3ccccc32)c1)c1ccccc1 as the molecule, how does the Potency read?
Its Potency is inconclusive [inhibitor, full curve, poor fit].

With COc1ccc(CN2CCNC(=O)C2CC(=O)NC2CCCCCC2)c(F)c1 (configuration not stated) as the molecule, how does the Potency read?
The Potency was inconclusive [inhibitor, full curve].

Which Potency does the source give for COc1ccc(NC(=O)CCN2CCN(CCO)CC2)cc1 here?
Its Potency is “inactive”.

Which Potency does the source give for COc1cc(C=O)ccc1OCCCOc1ccccc1C(=O)O here?
Its Potency is “inactive”.

For COc1ccc(-n2c(N)cc(=O)nc2SCC(=O)N2CCN(c3ccccc3)CC2)cc1, which Potency is on record?
Its Potency is “inactive”.

For CC1CCN(CCCCOc2ccc(C(=O)c3ccccc3)cc2)CC1, which Potency is on record?
Its Potency is inconclusive [inhibitor, full curve, poor fit].

Which Potency does the source give for Cc1nn2c(=O)cc(COC(=O)c3ccc(NC(=O)c4cccs4)cc3)nc2s1 here?
Its Potency is “inactive”.

How did the Potency turn out when Cc1c(C#N)c(O)[nH]c(=O)c1N=Nc1ccc(Br)cc1C(=O)O was run?
The Potency was “inactive”.

CCOc1cc(C(=O)NC(=S)Nc2cccnc2)cc(OCC)c1OCC was tested. Which Potency did it give?
The Potency was “inactive”.

Cc1cc(C)cc(N(CC(=O)NCc2ccc(F)cc2)C(=O)c2snc(C(N)=O)c2N)c1 was tested. Which Potency did it give?
Its Potency is “inactive”.

COc1ccc2c(C)c(CCC(=O)NC3CC3)c(=O)oc2c1 was tested. Which Potency did it give?
The Potency was inconclusive [inhibitor, full curve, poor fit].

Cc1cccc(NC(=O)CSc2ccc(-c3ccco3)nn2)c1C was tested. Which Potency did it give?
Its Potency is “inactive”.

COc1ccc(/C=C/C(=O)Nc2ccc(S(=O)(=O)N3CCOCC3)cc2)c(OC)c1 was tested. Which Potency did it give?
The Potency was “inactive”.

Which Potency does the source give for COc1ccc(C(c2c(O)nc(SC)n(C)c2=O)c2c(O)nc(SC)n(C)c2=O)cc1O here?
The Potency was “inactive”.

How did the Potency turn out when CCOc1ccccc1NC(=O)CSc1nc(=O)n(Cc2ccncc2)c2c1CCC2 was run?
Its Potency is inconclusive [inhibitor, full curve, poor fit].

With CCCCNCc1cc(Br)c(OCC(=O)N2CCOCC2)c(OC)c1 as the molecule, how does the Potency read?
The Potency was “inactive”.

COc1ccc(C(=O)Nc2ccc(NC(=O)c3ccccc3)cc2)cc1S(=O)(=O)N1CCOCC1 was tested. Which Potency did it give?
Its Potency is “inactive”.

Which Potency does the source give for CC(=O)NC(CCS(C)(=O)=O)C(=O)Nc1cccc2ccccc12 (configuration not stated) here?
The Potency was inconclusive [inhibitor, full curve, poor fit].

Cc1cccc(NC(=O)Nc2ccccc2[N+](=O)[O-])n1 was tested. Which Potency did it give?
The Potency was “inactive”.

How did the Potency turn out when Cc1ccc(Nc2sc(C(=O)c3ccccc3)c(N)c2S(=O)(=O)c2ccccc2)c(C)c1 was run?
Its Potency is “inactive”.

Which Potency does the source give for CCNC(=O)/C(C#N)=C/c1c(N2CC(C)OC(C)C2)nc2ccccn2c1=O (configuration not stated) here?
The Potency was inconclusive [inhibitor, single point].

For O=C(Nc1nc2n(n1)C(c1ccc(F)cc1)C=C(c1ccccc1)N2)c1cccc([N+](=O)[O-])c1 (configuration not stated), which Potency is on record?
Its Potency is “inactive”.

Which Potency does the source give for CS(=O)(=O)N1CCCC(C(=O)Nc2ccccc2F)C1 (configuration not stated) here?
Its Potency is inconclusive [inhibitor, full curve].

How did the Potency turn out when O=C(N/N=C/c1ccc(N2CCOCC2)cc1)c1cccs1 was run?
The Potency was inconclusive [inhibitor, full curve, poor fit].

Which Potency does the source give for COCc1cccc(C(=O)NC(c2ccccc2)c2ccccc2)c1 here?
Its Potency is inconclusive [inhibitor, full curve, poor fit].

With Cc1cc(Cl)ccc1OCC(=O)OCC(=O)N1CCC(C(N)=O)CC1 as the molecule, how does the Potency read?
Its Potency is inconclusive [inhibitor, full curve, poor fit].

Which Potency does the source give for Cc1cccc(C(=O)N/N=C/c2cc(Br)c(Br)o2)c1 here?
The Potency was inconclusive [inhibitor, full curve].

How did the Potency turn out when Cc1ccc(S(=O)(=O)c2nc(S(=O)(=O)c3ccc(C)cc3)c(NCc3ccco3)s2)cc1 was run?
Its Potency is inconclusive [inhibitor, partial curve, poor fit].

For COc1ccc(C(=O)C[n+]2ccc3c(c2)nc(-c2ccc(OC)cc2OC)n3C)cc1, which Potency is on record?
The Potency was inconclusive [inhibitor, partial curve, poor fit].

CCc1cccc(NC(=O)CCS(=O)(=O)c2cc3c4c(c2)CCN4C(=O)CC3)c1 was tested. Which Potency did it give?
The Potency was “inactive”.

With COc1ccc(CN2CCN(Cc3cc4ccccc4o3)CC2CCO)c(F)c1 (configuration not stated) as the molecule, how does the Potency read?
Its Potency is inconclusive [inhibitor, full curve, poor fit].

With O=C(CN1C(=O)c2ccccc2C1=O)NCc1ccccn1 as the molecule, how does the Potency read?
The Potency was inconclusive [inhibitor, partial curve, poor fit].

Which Potency does the source give for O=C(NCC(c1ccco1)N1CCc2ccccc2C1)c1cccc([N+](=O)[O-])c1 (configuration not stated) here?
The Potency was inconclusive [inhibitor, partial curve, poor fit].

For CC(Oc1ccccc1Br)C(=O)N1CCc2ccccc21 (configuration not stated), which Potency is on record?
The Potency was “inactive”.

Which Potency does the source give for O=C(COC(=O)c1cccnc1)Nc1cccc(Cl)c1 here?
Its Potency is inconclusive [inhibitor, partial curve, poor fit].

For NS(=O)(=O)c1ccc(CCNc2nc(C(F)(F)F)nc3ccccc23)cc1, which Potency is on record?
The Potency was inconclusive [inhibitor, full curve, poor fit].

Which Potency does the source give for O=C(CCS(=O)(=O)c1ccc(Br)cc1)N1CCN(c2ccc(Cl)cc2)CC1 here?
Its Potency is inconclusive [inhibitor, partial curve].

How did the Potency turn out when CC(C)CCNC(=O)c1cn(C)c2ccc(S(=O)(=O)N3CCOCC3)cc2c1=O was run?
Its Potency is “inactive”.

Which Potency does the source give for Cc1ccc(-c2csc(NC(=O)CCCc3cccs3)n2)cc1 here?
Its Potency is inconclusive [inhibitor, full curve].

Which Potency does the source give for CCN(CCO)C(=S)Nc1cc(S(=O)(=O)N(C)C)ccc1C here?
Its Potency is inconclusive [inhibitor, full curve, poor fit].

Which Potency does the source give for NS(=O)(=O)c1cccc(NC(=O)CSc2nc3ccc(Cl)cc3[nH]2)c1 here?
The Potency was inconclusive [inhibitor, partial curve, poor fit].

How did the Potency turn out when COc1ccc(-n2c(CCC(=O)O)ccc2-c2ccccc2)c(OC)c1 was run?
Its Potency is “inactive”.

Which Potency does the source give for CN(C)CC/C=C1/c2ccccc2Sc2ccc(Cl)cc21 here?
The Potency was inconclusive [inhibitor, full curve, poor fit].

Which Potency does the source give for COc1ccccc1C1C2=C(CC(C)(C)CC2=O)Nc2nnnn21 (configuration not stated) here?
Its Potency is inconclusive [inhibitor, full curve, poor fit].

Which Potency does the source give for Cc1cccc(N(C(=O)c2ccc(CN3CCOCC3)o2)C(C(=O)NC(C)(C)C)c2ccc(F)cc2)c1 (configuration not stated) here?
The Potency was inconclusive [inhibitor, partial curve, poor fit].

Which Potency does the source give for O=C(Nc1ccccc1C(=O)N1CCNCC1)c1ccco1 here?
The Potency was “inactive”.

How did the Potency turn out when COc1ccccc1C(=O)NCCNc1ccc([N+](=O)[O-])cc1Cl was run?
Its Potency is “inactive”.

With COc1ccc2c(c1)c(-c1csc(N)n1)c(C)n2C as the molecule, how does the Potency read?
The Potency was inconclusive [inhibitor, full curve].

For OC(COc1cccc(OCC(O)CN2CCCC2)c1)CN1CCCC1 (configuration not stated), which Potency is on record?
The Potency was inconclusive [inhibitor, partial curve].

CCOC(=O)c1c(Cc2cccc(Cl)c2)c[nH]c1C was tested. Which Potency did it give?
The Potency was “inactive”.
